# Laboratory results as given in the supplement of paper PMC3334620.
# Whole data set: some 33,000 sequences, median “E-score (-0.5 to 0.5)” near -0.011, cut for the highest 2% near 0.28. This is one part of the list.
# Target: T1, Gcr1 (UniProt P07261)
# T1 sequence: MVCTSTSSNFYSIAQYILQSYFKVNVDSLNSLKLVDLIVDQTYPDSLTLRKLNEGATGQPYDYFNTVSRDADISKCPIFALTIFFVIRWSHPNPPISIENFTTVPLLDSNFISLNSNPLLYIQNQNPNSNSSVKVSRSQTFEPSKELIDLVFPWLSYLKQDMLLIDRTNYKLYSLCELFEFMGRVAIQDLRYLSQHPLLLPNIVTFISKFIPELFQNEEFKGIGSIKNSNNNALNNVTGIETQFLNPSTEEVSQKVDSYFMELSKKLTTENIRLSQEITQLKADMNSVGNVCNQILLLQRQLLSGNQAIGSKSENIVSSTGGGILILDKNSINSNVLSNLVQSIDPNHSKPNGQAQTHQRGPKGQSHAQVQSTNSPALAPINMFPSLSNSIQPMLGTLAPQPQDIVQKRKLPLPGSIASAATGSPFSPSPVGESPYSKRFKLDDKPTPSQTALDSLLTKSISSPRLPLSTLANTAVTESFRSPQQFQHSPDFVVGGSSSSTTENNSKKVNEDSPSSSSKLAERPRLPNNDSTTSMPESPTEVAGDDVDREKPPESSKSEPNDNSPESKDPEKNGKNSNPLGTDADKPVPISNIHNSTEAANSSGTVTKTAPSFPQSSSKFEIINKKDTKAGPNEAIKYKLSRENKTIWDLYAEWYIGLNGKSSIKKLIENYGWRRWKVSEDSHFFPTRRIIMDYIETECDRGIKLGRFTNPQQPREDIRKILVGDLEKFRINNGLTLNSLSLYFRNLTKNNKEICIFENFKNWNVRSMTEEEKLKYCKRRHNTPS
# Test: PBM E-score (8-mer binding enrichment) (E-score (-0.5 to 0.5)); higher = stronger / more preferred TF binding; most listed sequences are background and not binding sites
# Details: protein concentration: 100 nM; construct: GST-full length
# Method in brief: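 GST-tagged yeast TFs (full-length or DNA-binding domain) were made by PURExpress in vitro transcription/translation and applied at about 100-200 nM to universal all-10-mer Agilent arrays. The arrays were made double-stranded by primer extension, on fresh or once-stripped slides. Bound protein was detected with fluorescent anti-GST, and scans were normalised with masliner. Each ungapped eight-base word, pooled with its reverse complement, received an E-score (modified Wilcoxon-Mann-Whitney statistic) from the Universal PBM Analysis Suite.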
row,Sequence,PBM E-score
1,TAACCAAA,-0.0086
2,CTTGATGA,0.13
3,CTAAATAC,0.227
4,TGACTAAA,-0.0574
5,CTCAGGAC,0.182
6,CACAAACC,0.00896
7,ATGCACGA,-0.189
8,AACTACAT,-0.0174
9,CCTCCAGG,-0.15
10,ACTTCTAT,0.0182
11,ACGAACAG,-0.0794
12,CGCCGATC,0.111
13,TGGGACAA,-0.108
14,GCCAAAAA,0.288
15,ATAAACAC,0.0109
16,AGCCGAAC,-0.184
17,CCCCCAAG,-0.0798
18,CCAGCACG,0.179
19,GCGGTTCA,-0.231
20,GCAACCTA,0.179
21,GACCGCAA,0.0768
22,AAGAACCG,0.0757
23,CATCTCTA,-0.198
24,ACATTCCT,0.0561
25,GATCGGTA,-0.0907

row,Sequence,PBM E-score
1,AAGACATT,-0.0207
2,CGCCCTGA,0.0841
3,CTGGTATC,0.231
4,GCATGAAA,-0.0306
5,GCACCGCC,-0.175
6,AGCAGGGC,-0.0214
7,ACGATCTG,-0.0915
8,ACAAGTGT,-0.142
9,ATAATTAA,0.134
10,AGCATCAC,0.00094
11,GAGCTCCA,-0.109
12,ACATGGAG,-0.201
13,CCCAGTGC,0.113
14,CAAGTTTA,0.0568
15,GCGGTTAC,0.0747
16,GATCGAAC,-0.0495
17,ACGAATTG,0.0645
18,CTAAGCAA,-0.0849
19,GTTTAGTA,0.146
20,AAGCTCTG,-0.0861
21,CGAACGAA,-0.122
22,AGCTCTCA,-0.161
23,GTTTTGCA,0.0247
24,GAGCTTCA,0.00823
25,AGTTTCTG,-0.0119

row,Sequence,PBM E-score
1,GCATCGGA,0.0246
2,CGGATTCA,-0.0182
3,ACGTACCA,0.118
4,AATCTCTC,-0.121
5,CTTTGACC,-0.0466
6,TCTTTCAA,-0.215
7,GGCCTTGA,-0.0649
8,AGGAATGC,0.228
9,AATCCGAG,0.0975
10,AACAGCAC,0.0366
11,TAACAGCA,0.201
12,ACGGTTAG,-0.0243
13,GCTGAGGA,-0.0958
14,ACCCTAGC,-0.00437
15,ATACATAC,0.0754
16,AAATAAGT,0.0572
17,ATAGCAGC,0.127
18,AGTCTTTG,-0.0405
19,ACCACTCG,0.0865
20,CCCTCCTC,-0.0251
21,GTAGTGGA,0.285
22,ACTGGTAC,0.205
23,ATTTGCCC,0.126
24,AATTAGGC,0.327
25,CGTGAACA,0.148

row,Sequence,PBM E-score
1,ATATGTGC,-0.063
2,CTCATTTC,-0.0305
3,CGTCATGA,-0.118
4,ATACCGAG,-0.0781
5,GGCCGTAC,-0.2
6,GCGGGTAA,-0.0803
7,AGCATTAT,-0.0632
8,CATAGAGG,0.0162
9,GGGTATTA,-0.0133
10,ACCCGAAA,0.14
11,ACGAGGTC,0.175
12,ATATATTC,-0.0491
13,CTGCATCC,0.249
14,ACAAACAA,-0.0402
15,CGTACCGA,-0.16
16,CCTTTCTC,-0.0392
17,CCACCTGC,-0.196
18,CAGTCATC,-0.266
19,ATAGTCTA,-0.158
20,TCCGTCCA,0.0563
21,TAGGTCAA,-0.206
22,CGTAATAG,0.112
23,AATCCGGC,0.181
24,GTCCTTAA,0.102
25,CCTAATTA,0.157

row,Sequence,PBM E-score
1,CCCCCATC,-0.144
2,ACCAGCAC,-0.0275
3,CCAAGCCG,-0.0556
4,CGGCCAGC,0.0354
5,AGCCCGAG,-0.113
6,AGAGCTCT,-0.198
7,GGCGATGA,-0.216
8,AGTCGACA,-0.00875
9,CTTAACTC,-0.0912
10,TATGGCCA,-0.0811
11,AATTGTCG,-0.151
12,CGAACTTA,-0.0605
13,CGACGTGC,-0.107
14,ATCGTCTA,0.0426
15,CCTCGAAA,-0.0179
16,AAGGAGTA,-0.182
17,CACCCACC,0.0648
18,CCCCAGAA,0.288
19,TAAGCGCA,-0.0709
20,ACCAATGG,0.0385
21,ATCCGCGA,0.0471
22,AAGGTATA,-0.131
23,GGTTCACA,-0.169
24,GAGTGCCC,-0.115
25,ACTTCCCT,-0.036

row,Sequence,PBM E-score
1,CAGGCGTA,-0.00724
2,CCCAGAGC,-0.139
3,GGCATACA,-0.154
4,ACAGTCAC,-0.135
5,TAAGTTGA,0.0103
6,ACTTCGCG,-0.0107
7,ACTACAAG,0.0419
8,AGCCTATG,-0.14
9,GTTCTCAA,-0.129
10,CGACGCAC,-0.0398
11,GATGGACC,-0.0233
12,ACTTGGCA,0.103
13,CGTAGCAG,-0.0996
14,GGACTTCA,-0.0496
15,CTTCTAAC,0.0237
16,AACTATAA,0.052
17,TAAGCCTA,-0.0689
18,CTCTAACC,-0.00747
19,CAGCTCCG,0.04
20,AATACTCG,0.0669
21,CTACAAGA,0.178
22,CGTCTGTC,0.0841
23,GACATGAA,0.0102
24,CGCTTTCA,-0.00233
25,CGCGCACG,-0.0391

row,Sequence,PBM E-score
1,CGTTTTCC,0.0138
2,ATGACCCG,-0.321
3,GCATACGA,0.0222
4,CCGCAGAA,0.0395
5,CATGTAGC,0.00775
6,AAGCGTGC,-0.18
7,TCTTTGCA,0.124
8,GGAACAGA,-0.132
9,CTGCCTAA,0.161
10,ATTTATGG,0.149
11,CATGACCC,-0.309
12,GCCACCAC,0.131
13,CTCAACCC,-0.0891
14,CACTTGCC,-0.076
15,CTCAGGTC,-0.088
16,CAACCTCC,-0.135
17,ATGCCTAG,0.0191
18,TGATTACA,0.073
19,AGCTACTG,0.109
20,TAACGCCA,-0.132
21,CGATGTGC,-0.242
22,CAGTGTGA,0.0434
23,GTCAACGA,-0.0653
24,CGACCTGC,-0.225
25,ACCCCTAT,0.097

row,Sequence,PBM E-score
1,AAGATGAA,0.0389
2,ATCAAGAA,0.231
3,AGTATCCA,0.042
4,GACAGGAA,0.316
5,CACCCTGA,0.0636
6,ACCATTCT,-0.0236
7,GTGCGTTA,-0.116
8,TGATACAA,-0.0109
9,ACTCCCAC,0.0336
10,GATGGCCA,-0.214
11,CCTCAGCG,-0.0585
12,GATTGTTA,0.0199
13,CCAGTAGC,0.164
14,ATGAACTG,0.0704
15,AGTGGAAG,0.442
16,CCCGACTC,-0.179
17,AACGAGCT,-0.123
18,AAACCTTC,0.0778
19,CTGTATGA,-0.0714
20,ACGTAGAG,0.0842
21,CGATCCGA,-0.223
22,CTGCGCAA,0.0872
23,CAAAACAC,0.027
24,TAACTACA,-0.143
25,CACCCTCC,0.0196

row,Sequence,PBM E-score
1,ATACAATC,-0.185
2,AAACTCCA,-0.0481
3,AGTACAGC,-0.282
4,AAAACCGC,-0.0251
5,AGGTCGTA,-0.0148
6,ACTCCTCA,0.0709
7,AACAAGTT,0.155
8,AGTGCAGA,0.0469
9,ATACATCG,-0.00309
10,AACGCATG,-0.104
11,CGCATCCG,0.221
12,AGATTTGC,0.102
13,ATCCATTA,0.269
14,CATGGCGC,-0.0109
15,CACGACGC,0.163
16,ACGGGGCG,0.21
17,CGCCCGCC,-0.0232
18,ACGACTAG,0.017
19,GCTCTTGA,-0.0408
